Test results published in paper PMC4336329 (PLoS ONE, 2015).
Hit rate of the full screen: of about 310,000 compounds, about 2,200 (0.71%) showed an effect of 50% or more. The effect is printed as a negative number. Some of the results follow.

molecular target: human ether-à-go-go-related gene (hERG) potassium channel (human, UniProt Q12809); experiment: primary screen, population patch clamp on CHO cells stably expressing hERG
Sequence (Q12809 whole entry, looked up): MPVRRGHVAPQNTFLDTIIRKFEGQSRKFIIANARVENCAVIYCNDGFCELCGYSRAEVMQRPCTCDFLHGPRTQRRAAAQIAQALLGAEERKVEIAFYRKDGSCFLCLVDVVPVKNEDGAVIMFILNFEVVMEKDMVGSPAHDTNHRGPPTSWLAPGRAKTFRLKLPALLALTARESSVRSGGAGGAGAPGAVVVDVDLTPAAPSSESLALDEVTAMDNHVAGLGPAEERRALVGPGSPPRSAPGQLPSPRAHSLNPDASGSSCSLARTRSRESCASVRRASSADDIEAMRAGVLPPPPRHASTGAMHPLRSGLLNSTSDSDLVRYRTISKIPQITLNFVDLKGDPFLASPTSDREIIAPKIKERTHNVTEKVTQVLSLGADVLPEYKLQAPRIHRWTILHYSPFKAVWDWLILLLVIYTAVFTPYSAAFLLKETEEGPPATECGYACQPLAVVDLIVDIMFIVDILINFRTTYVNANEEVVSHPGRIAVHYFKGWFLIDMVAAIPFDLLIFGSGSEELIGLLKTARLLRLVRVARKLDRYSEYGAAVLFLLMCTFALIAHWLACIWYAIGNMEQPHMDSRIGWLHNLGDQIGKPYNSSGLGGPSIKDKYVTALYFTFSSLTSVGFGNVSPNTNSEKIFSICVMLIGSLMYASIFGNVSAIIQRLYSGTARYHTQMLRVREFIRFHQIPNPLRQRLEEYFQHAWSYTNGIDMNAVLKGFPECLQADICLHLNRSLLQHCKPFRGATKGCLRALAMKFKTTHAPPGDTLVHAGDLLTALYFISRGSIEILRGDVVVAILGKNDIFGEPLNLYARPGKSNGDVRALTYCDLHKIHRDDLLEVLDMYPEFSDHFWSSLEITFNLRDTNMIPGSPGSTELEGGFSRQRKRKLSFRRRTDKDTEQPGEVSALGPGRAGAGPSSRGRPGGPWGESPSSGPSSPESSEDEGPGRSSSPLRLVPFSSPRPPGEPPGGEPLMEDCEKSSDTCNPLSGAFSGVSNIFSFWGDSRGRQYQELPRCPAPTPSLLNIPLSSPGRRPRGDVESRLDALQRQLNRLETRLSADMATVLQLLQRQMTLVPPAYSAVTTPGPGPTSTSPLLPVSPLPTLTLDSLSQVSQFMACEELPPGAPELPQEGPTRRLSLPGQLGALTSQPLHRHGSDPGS

First: CCOCCCNc1nc(-c2ccccc2)nc2ccccc12.Cl
Second: O=c1c2ccccc2nc(/C=C/c2ccccc2)n1CCCO
The “hERG current change (%, negative = inhibition) at 1uM” value of the first is higher: 9.26% for the first, 0.792% for the second.

Going from `CCc1nnc(NS(=O)(=O)c2ccc(NC(=S)NC(=O)c3ccc(OC)cc3)cc2)s1` to `CN(C)S(=O)(=O)c1ccc(NC(=S)NC(=O)c2cccs2)cc1`, the “hERG current change (%, negative = inhibition) at 1uM” value falls from 15% to 12.3%.

First: COC(=O)c1cc2c(ccn2-c2ccc(F)cc2)n1CC(=O)C(C)(C)C
Second: COC(=O)c1ccc(Cn2cnc3c(cnn3-c3ccc(C)c(C)c3)c2=O)o1
The “hERG current change (%, negative = inhibition) at 1uM” value of the first is higher: 13.9% for the first, 7.86% for the second.

First: COc1cc2c3c(c1OC)C1(C=CC(=O)C=C1)CC3N(C(C)=O)CC2 (centres unmarked)
Second: COc1cc(-n2c(C)nc3cc(C(=O)O)ccc32)cc(OC)c1OC
The “hERG current change (%, negative = inhibition) at 1uM” value of the first is lower: 2.4% for the first, 8.5% for the second.

First: CSc1nc(-c2ccccc2)nc(N)c1C(C)=O
Second: Cc1c(C)n(CCC(=O)O)c2ccccc12
The “hERG current change (%, negative = inhibition) at 1uM” value of the first is lower: 5.67% for the first, 21% for the second.

Compared with `COc1ccc(/C=N/Nc2ccc(C(=O)O)cc2)cc1OC`, `COc1ccc(Cc2nc3ccc(C(=O)NCc4ncc(C)[nH]4)cc3o2)cc1OC` is higher in “hERG current change (%, negative = inhibition) at 1uM” value: 4.49% for the first, 6.64% for the second.

Compared with `Cc1cc(C)c(C(=O)N2CCCC(CNS(=O)(=O)c3cccs3)C2)o1` (centres unmarked), `Cc1ccc(S(=O)(=O)NC2=NCN(C)CN2)cc1[N+](=O)[O-]` is lower in “hERG current change (%, negative = inhibition) at 1uM” value: 8.74% for the first, -8.15% for the second.

First: CC(CC(=O)Nc1cccc(S(=O)(=O)N2CCCCC2)c1)c1ccccc1 (centres unmarked)
Second: CC1CCC2(CC1)NC(=O)N(CC(=O)Nc1cccc(S(=O)(=O)N3CCCC3)c1)C2=O (centres unmarked)
The “hERG current change (%, negative = inhibition) at 1uM” value of the first is higher: 7.84% for the first, 3.91% for the second.

First: Cc1ccccc1C(=O)Nc1nnc(SCC(=O)NCc2ccco2)s1
Second: CCn1c(SCC(=O)N/N=C/C=C/c2ccco2)nc2ccccc21
The “hERG current change (%, negative = inhibition) at 1uM” value of the first is higher: 9.58% for the first, 3.34% for the second.

First: COc1cc(OC)c(C2CC(=O)N3CN(c4ccccc4)CSC3=C2C#N)cc1OC (centres unmarked)
Second: COc1ccc(OC)c(CCNC(=O)CCCC(=O)n2ncc3cc(C)ccc32)c1
The “hERG current change (%, negative = inhibition) at 1uM” value of the first is higher: 10.1% for the first, 5.91% for the second.

First: COc1ccccc1NC(=O)C(=O)Nc1ccccn1
Second: O=C(O)CC(NC(=O)Cc1ccccc1)c1ccccc1 (centres unmarked)
The “hERG current change (%, negative = inhibition) at 1uM” value of the first is higher: 11.7% for the first, 10.1% for the second.

Going from `S=C(NCc1ccccc1)Nc1ccc(Oc2ccccc2)cc1` to `O=C(CSCc1c(F)cccc1Cl)NCCc1ccccc1`, the “hERG current change (%, negative = inhibition) at 1uM” value falls from 15.5% to 8.84%.

Going from `Cc1cc(C(=O)C(=O)N(C)C)c(C)n1-c1ccc(Cl)cc1` to `Cc1ccc(C)c(OCCC(=O)N2CCN(S(=O)(=O)c3cc(F)ccc3F)CC2)c1`, the “hERG current change (%, negative = inhibition) at 1uM” value falls from 12.7% to 7.84%.

Going from `NC(=O)c1ccsc1NC(=O)COC(=O)C1CC2CCCC(C1)C2=O` (centres unmarked) to `CC(C)COC(=O)n1ccc(C(=O)N2CCCCC2)n1`, the “hERG current change (%, negative = inhibition) at 1uM” value falls from 37.3% to 0.919%.

Going from `COc1cc2c(cc1O)C[C@H]1NCCc3cc4c(c-2c31)OCO4` to `CCCCn1c(SCC(=O)Nc2ccc3c(c2)OCO3)nc2c1c(=O)n(C)c(=O)n2C`, the “hERG current change (%, negative = inhibition) at 1uM” value falls from 2.12% to -8.07%.

Compared with `CCCCN1CC(=O)N2[C@H](c3ccc(Cl)cc3)[C@@H]3C(=O)N(CC)C(=O)[C@@H]3[C@]2(C)C1=O`, `Cn1cc(Br)c(C(=O)NN2C(=O)C3C4C=CC(C5CC45)C3C2=O)n1` (centres unmarked) is higher in “hERG current change (%, negative = inhibition) at 1uM” value: -0.844% for the first, 29.1% for the second.

Compared with `O=C(O)c1cn(Cc2cccnc2)c(=O)c2ccccc12`, `CC(=NCCc1ccccc1)C1=C(O)CCC1=O` is lower in “hERG current change (%, negative = inhibition) at 1uM” value: 9.94% for the first, -1.37% for the second.

Going from `CCCS(=O)(=O)N1CCC(C(=O)N2CCCC2)CC1` to `CC1CCN(c2ccc(N3C(=O)C4CCCCC4C3=O)cc2[N+](=O)[O-])CC1` (centres unmarked), the “hERG current change (%, negative = inhibition) at 1uM” value rises from 3.1% to 18.2%.

Compared with `CC(C)(C)n1cnc2cc(NC(=O)c3ccco3)ccc21`, `O=C(CCCc1cccs1)Nc1ccc2c(c1)OCO2` is lower in “hERG current change (%, negative = inhibition) at 1uM” value: 16% for the first, 12% for the second.

Going from `O=C(Cc1c(F)cccc1Cl)Nc1ccc(S(=O)(=O)N2CCOCC2)cc1` to `O=C(Nc1ccc2c(c1)OCCO2)C1CCN(C(=O)c2ccccc2)CC1`, the “hERG current change (%, negative = inhibition) at 1uM” value falls from 12.8% to 7.75%.

Compared with `CCOc1cccc(/C=N/NC(=O)c2cc(-c3cccn3C)n[nH]2)c1O`, `O=[N+]([O-])c1cccc(/C=N/n2cnnc2)c1O` is higher in “hERG current change (%, negative = inhibition) at 1uM” value: 1.34% for the first, 7.69% for the second.

Compared with `Cc1c(Cl)cccc1NC(=S)N1CCN(c2ncccn2)CC1`, `O=C(O)/C=C\C(=O)O.c1ccc2c(c1)CC1CNCc3cccc(c31)S2` (centres unmarked) is lower in “hERG current change (%, negative = inhibition) at 1uM” value: 16.6% for the first, -9.05% for the second.
